Test results published in PubChem BioAssay AID504332 (National Center for Advancing Translational Sciences (NCATS), 2011).
Among all 350,000 compounds or so, about 31,000 (8.9%) were called active. This list was built around the results that the source calls inconclusive (neither active nor inactive); the mix of calls is not that of the screen. Calls follow the shape of the dose curve; as a rule, active = well fitted inhibition curve with a large enough effect; inconclusive = small, poorly fitted or top-dose-only effect; inactive = no such curve, though single readings can be large or run the other way. A potency beside an inconclusive call is a rough fit, not a confirmed value.

target: Histone-lysine N-methyltransferase EHMT2 (Homo sapiens) (UniProt Q96KQ7); assay: qHTS Assay for Inhibitors of Histone Lysine Methyltransferase G9a; conditions: G9a H3K9 monomethylation, AlphaScreen, 2 h; activity, negative = inhibition: at 59 µM (top of the series) unless noted; also: nearly all actives have a fitted effect of over 75% in size
Summary of the method: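 Signal arises when biotinylated H3K9 peptide, once monomethylated, bridges streptavidin donor and antibody-captured acceptor beads. Enzyme at 20 nM was preincubated 15 min with test compounds; peptide 500 nM and SAM 20 uM then reacted for 2 h.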
% is scaled to controls: 0 for no effect and ±100 for the full control effect; potency is read from the fitted curve at half-maximal effect; tags tell the direction and shape of the fitted curve.

UniProt Q96KQ7, sequence (Q96KQ7 whole entry, looked up): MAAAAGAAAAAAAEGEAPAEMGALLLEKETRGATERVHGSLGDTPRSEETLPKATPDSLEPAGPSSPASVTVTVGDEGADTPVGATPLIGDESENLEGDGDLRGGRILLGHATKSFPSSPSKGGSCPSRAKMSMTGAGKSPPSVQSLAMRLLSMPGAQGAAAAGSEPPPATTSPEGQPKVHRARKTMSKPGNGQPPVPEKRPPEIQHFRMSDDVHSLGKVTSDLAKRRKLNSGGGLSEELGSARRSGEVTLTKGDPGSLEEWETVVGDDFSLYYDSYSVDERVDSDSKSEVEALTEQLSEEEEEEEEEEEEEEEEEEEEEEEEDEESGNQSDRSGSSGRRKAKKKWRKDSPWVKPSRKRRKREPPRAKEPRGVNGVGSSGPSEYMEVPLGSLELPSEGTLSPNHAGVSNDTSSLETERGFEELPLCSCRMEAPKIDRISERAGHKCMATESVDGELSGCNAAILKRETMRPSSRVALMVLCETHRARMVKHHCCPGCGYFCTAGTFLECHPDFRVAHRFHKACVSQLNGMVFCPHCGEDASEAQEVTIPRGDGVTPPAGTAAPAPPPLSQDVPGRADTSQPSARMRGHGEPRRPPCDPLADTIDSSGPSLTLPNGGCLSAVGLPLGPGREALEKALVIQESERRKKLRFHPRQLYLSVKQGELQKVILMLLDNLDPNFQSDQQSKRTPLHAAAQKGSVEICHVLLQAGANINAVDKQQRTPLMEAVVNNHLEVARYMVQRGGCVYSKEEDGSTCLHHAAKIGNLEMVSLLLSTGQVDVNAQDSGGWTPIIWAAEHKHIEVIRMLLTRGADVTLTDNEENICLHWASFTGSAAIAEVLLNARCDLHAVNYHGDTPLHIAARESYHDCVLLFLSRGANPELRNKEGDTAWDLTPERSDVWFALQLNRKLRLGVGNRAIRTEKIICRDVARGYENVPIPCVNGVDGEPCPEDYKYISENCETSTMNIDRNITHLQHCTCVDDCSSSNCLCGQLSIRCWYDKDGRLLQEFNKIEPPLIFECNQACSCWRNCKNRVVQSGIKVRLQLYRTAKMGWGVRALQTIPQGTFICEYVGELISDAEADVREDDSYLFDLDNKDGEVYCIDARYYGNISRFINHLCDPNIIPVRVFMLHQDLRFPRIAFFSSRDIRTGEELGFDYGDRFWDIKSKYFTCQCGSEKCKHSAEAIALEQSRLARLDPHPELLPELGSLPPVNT

Compound	Potency	activity, negative = inhibition
Cc1c(C(=O)N2CCOCC2)oc2c1-c1nn(CC(=O)NCc3cccc(F)c3)cc1CC2	inconclusive: 35.5 µM [inhibitor, single point]	
Cc1ccc(C(=O)OCC(=O)NCCNC(=O)COC(=O)c2ccc(C)o2)o1	active: 56.2 µM	
Cn1c(Sc2nc3ccccc3n2C)nc2ccccc21	inconclusive: 89.1 µM [inhibitor, single point]	
CCOc1ccc(CCNC(=O)CCS(=O)(=O)c2ccc(Br)cc2)cc1OCC		inactive: -12.1% [at 102 µM]
CCOc1ccccc1CNC(=O)CCc1c(C)nn(-c2ccc(N3CCCC3)nn2)c1C		inactive: 7.15%
N#C/C(C(=O)N1CCCCC1)=C1\Nc2ccccc2S1	inconclusive: 3.55 µM [inhibitor, full curve]	
Cc1ccccc1OCCn1cc(C(=O)C(=O)N2CCOCC2)c2ccccc21		inconclusive: -53% [inhibitor]
COc1ccc(OC)c(CCNC(=O)CN2C(=O)CCSc3ccccc32)c1		inactive: 2.49% [at 102 µM]
O=C1c2ccccc2CCC1C(O)c1ccccn1 (stereo not drawn)	inconclusive: 79.4 µM [inhibitor, partial curve, poor fit]	
Cc1cc(OCC(=O)N(C(C)C)C(C)C)cc(C)c1Br	inconclusive: 6.31 µM [inhibitor, partial curve, poor fit]	
OCCNc1nc(Nc2ccccc2)nc2ccccc12	inconclusive: 35.5 µM [inhibitor, partial curve, poor fit]	
CCc1nc(NCCCn2ccnc2)c2oc3ccccc3c2n1	inconclusive: 89.1 µM [inhibitor, single point]	
Clc1ccccc1-c1nnc2sc(-c3ccc4c(c3)OCO4)nn12	active: 1.78 µM	
COc1ccc(-n2ccnc2SCC(=O)Nc2ccc3c(c2)OCO3)cc1	inconclusive: 35.5 µM [inhibitor, partial curve, poor fit]	
CC1(C)C(=O)C=C[C@@]2(C)C1C=C[C@@]1(C)C2CC[C@@]2(C)C(c3ccoc3)OC(=O)C3OC312 (stereo partly drawn)		inactive: -36.1% [at 2.33 µM]
Cc1[nH]c2ccccc2c1-c1csc(NC(=O)CSCCO)n1	active: 70.8 µM	
COc1cc2nc(CN(CCC(C)C)Cc3nc4cc(OC)c(OC)cc4c(=O)[nH]3)[nH]c(=O)c2cc1OC	inconclusive: 20 µM [inhibitor, partial curve, poor fit]	
C#CCOCCOCCOCCNc1nc(N2CCN(C(=O)[C@H]([C@@H](C)O)n3cc(CCCCN)nn3)CC2)nc(N2CCN(C(=O)[C@H](CCCCN)n3cc(CCC(=O)O)nn3)CC2)n1		inconclusive: -66.1% [inhibitor] [at 2.33 µM]
